Reference: the supplement of paper PMC10369915
The other results are listed elsewhere or left out. Cut-off read from the data, not from the text of the source: active = 3.2 or more and inactive = the rest. The signal is at background level for most entries.

Legend:
Assay in all cases: enrichment score (SH2-bound / input frequency) (ratio); bacterial display of known human phosphotyrosine sites (pTyr-Var adds point mutants) read by sequencing; higher = stronger binding; tyrosines were phosphorylated by kinases first
Conditions in all cases: peptide library: pTyr-Var
SHP2 C-SH2 domain E139D = target: SHP2 C-SH2 domain E139D
[1] = target: SHP2 C-SH2 domain wild-type
SHP2 N-SH2 domain L43F = target: SHP2 N-SH2 domain L43F
SHP2 N-SH2 domain T42A = target: SHP2 N-SH2 domain T42A
SHP2 N-SH2 domain T52S = target: SHP2 N-SH2 domain T52S
[2] = target: SHP2 N-SH2 domain wild-type
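Note: displayed peptides selected on beads carrying the immobilized SH2 domain, with library peptides lacking any tyrosine serving as negative controls.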

Row | Binder | enrichment score (SHP2 C-SH2 domain E139D) | enrichment score [1] | enrichment score (SHP2 N-SH2 domain L43F) | enrichment score (SHP2 N-SH2 domain T42A) | enrichment score (SHP2 N-SH2 domain T52S) | enrichment score [2]
1 | KVPAIYGVDTR [CPS1_Y162] | inactive: 0.814 | inactive: 0.758 | inactive: 0.664 | inactive: 0.615 | inactive: 0.93 | inactive: 0.862
2 | VGAKTYKMSMA [CPS1_Y309_A304V] | inactive: 0.734 | inactive: 0.937 | inactive: 0.737 | inactive: 0.813 | inactive: 0.604 | inactive: 0.727
3 | GVLKEYVVKVL [CPS1_Y529_G530V] | inactive: 1.59 | inactive: 1.24 | inactive: 1.3 | inactive: 1.17 | inactive: 1.34 | inactive: 1.59
4 | GVLKEYGEKVL [CPS1_Y529_V531E] | inactive: 0.935 | inactive: 0.571 | inactive: 0.701 | inactive: 0.617 | inactive: 0.721 | inactive: 0.81
5 | GVLKEYGGKVL [CPS1_Y529_V531G] | inactive: 0.947 | inactive: 0.945 | inactive: 1.11 | inactive: 0.899 | inactive: 0.969 | inactive: 1.2
6 | MICSAYALGGL [CPS1_Y590_R587C] | inactive: 0.87 | inactive: 1.04 | inactive: 1.15 | inactive: 0.751 | inactive: 0.768 | inactive: 0.84
7 | MILSAYALGGL [CPS1_Y590_R587L] | inactive: 1.27 | inactive: 1.59 | inactive: 1.48 | inactive: 1.33 | inactive: 1.36 | inactive: 1.49
8 | WKEIEYEVVPD [CPS1_Y634_R638P] | inactive: 0.574 | inactive: 0.621 | inactive: 0.483 | inactive: 0.466 | inactive: 0.569 | inactive: 0.571
9 | EPSLDYMVTKI [CPS1_Y768] | inactive: 0.677 | inactive: 0.726 | inactive: 0.746 | inactive: 0.678 | inactive: 0.826 | inactive: 1.19
10 | IEKLTYIDEWF [CPS1_Y872_K875E] | inactive: 0.901 | inactive: 0.757 | inactive: 1.16 | inactive: 1 | inactive: 1.01 | inactive: 1
11 | LDTSQYFRLFN [CPT2_Y217_M214T] | inactive: 0.776 | inactive: 1.49 | inactive: 0.784 | inactive: 0.997 | inactive: 0.733 | inactive: 0.796
12 | RPASVYTKRCS [CPT2_Y508] | inactive: 0.275 | inactive: 0.338 | inactive: 0.282 | inactive: 0.38 | inactive: 0.504 | inactive: 0.325
13 | RLASVYTKRCS [CPT2_Y508_P504L] | inactive: 0.324 | inactive: 0.476 | inactive: 0.607 | inactive: 0.424 | inactive: 0.41 | inactive: 0.536
14 | LNPDGYKKAFE [CPXM2_Y427_E428K_YF] | inactive: 0.397 | inactive: 0.894 | inactive: 0.747 | inactive: 1.02 | inactive: 0.78 | inactive: 0.709
15 | HEEKVYLSRGD [CRACR2A_Y141] | inactive: 0.723 | inactive: 0.671 | inactive: 0.792 | inactive: 0.76 | inactive: 0.685 | inactive: 0.575
16 | NCLREYVAGRF [CRB1_Y711] | inactive: 0.898 | inactive: 1.08 | inactive: 1.1 | inactive: 0.779 | inactive: 0.85 | inactive: 1.11
17 | LENSTYQYIRV [CRB1_Y760] | inactive: 0.737 | inactive: 2.89 | inactive: 1.12 | active: 4.72 | inactive: 1.12 | inactive: 0.93
18 | LENSTYQYICV [CRB1_Y760_R764C] | inactive: 1.26 | inactive: 1.56 | inactive: 1.25 | inactive: 1.44 | inactive: 1.25 | inactive: 1.98
19 | LRIAVYHEILI [CREBBP_Y1450_T1447I] | inactive: 1.8 | inactive: 2.47 | inactive: 1.73 | inactive: 1.39 | inactive: 1.32 | inactive: 2.26
